From PMC4336329 (PLoS ONE, 2015) come the findings set out here.

Out of some 310,000 compounds screened, about 14,000 (4.5%) showed an effect of 50% or more. Effects have a minus sign here. Some of the results follow.
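Note: peak tail current of the secondary pulse compared with the same well before compound.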

Sequence of human ether-à-go-go-related gene (hERG) potassium channel (Q12809 whole entry, looked up): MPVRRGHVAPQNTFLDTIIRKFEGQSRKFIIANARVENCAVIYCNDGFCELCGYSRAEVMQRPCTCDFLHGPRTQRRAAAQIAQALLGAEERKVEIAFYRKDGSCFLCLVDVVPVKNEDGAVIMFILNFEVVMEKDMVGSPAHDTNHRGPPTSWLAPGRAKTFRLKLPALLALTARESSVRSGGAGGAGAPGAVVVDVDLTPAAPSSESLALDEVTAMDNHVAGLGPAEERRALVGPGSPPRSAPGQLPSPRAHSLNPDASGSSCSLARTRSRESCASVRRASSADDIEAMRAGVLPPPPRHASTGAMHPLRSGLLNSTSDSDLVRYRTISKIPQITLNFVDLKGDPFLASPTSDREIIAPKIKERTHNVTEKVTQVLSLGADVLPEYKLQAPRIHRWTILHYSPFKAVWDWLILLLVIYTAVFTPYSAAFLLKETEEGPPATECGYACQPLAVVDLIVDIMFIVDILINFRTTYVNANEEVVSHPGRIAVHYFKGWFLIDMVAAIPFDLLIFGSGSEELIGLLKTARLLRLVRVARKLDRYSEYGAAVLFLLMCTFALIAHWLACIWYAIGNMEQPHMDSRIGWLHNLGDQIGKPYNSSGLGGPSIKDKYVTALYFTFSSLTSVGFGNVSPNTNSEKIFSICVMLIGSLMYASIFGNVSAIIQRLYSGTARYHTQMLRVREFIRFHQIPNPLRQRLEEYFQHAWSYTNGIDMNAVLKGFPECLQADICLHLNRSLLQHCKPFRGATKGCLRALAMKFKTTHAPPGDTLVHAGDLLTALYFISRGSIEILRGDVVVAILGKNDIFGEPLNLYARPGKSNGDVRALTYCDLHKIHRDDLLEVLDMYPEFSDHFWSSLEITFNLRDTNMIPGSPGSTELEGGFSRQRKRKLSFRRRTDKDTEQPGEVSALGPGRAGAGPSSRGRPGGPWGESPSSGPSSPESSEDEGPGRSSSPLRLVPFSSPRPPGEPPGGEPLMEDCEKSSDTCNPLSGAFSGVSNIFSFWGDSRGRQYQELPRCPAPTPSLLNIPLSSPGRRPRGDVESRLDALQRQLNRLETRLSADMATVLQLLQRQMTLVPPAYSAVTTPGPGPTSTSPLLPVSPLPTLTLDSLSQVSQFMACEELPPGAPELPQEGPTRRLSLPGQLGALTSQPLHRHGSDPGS

This assay addresses human ether-à-go-go-related gene (hERG) potassium channel (human, UniProt Q12809). Description: primary screen, population patch clamp on CHO cells stably expressing hERG.
In the case of `Cc1cc(C)nc(-n2nc(C)cc2NC(=O)CN2CCCC(C)C2)n1` (stereo not drawn), the “hERG current change (%, negative = inhibition) at 10uM” value is recorded as -56%.
The figure for `O=C(CCN1CCOCC1)NNC(=O)/C(=C/c1ccccc1)NC(=O)c1ccccc1` is -3.16%; for `COc1ccc(CC2(CO)CCN(CC3=CC[C@H]4C[C@@H]3C4(C)C)CC2)cc1` it is -58.7%.
The figure for `CC(=O)c1ccc(Sc2nnnn2-c2ccccc2)c([N+](=O)[O-])c1` is -31.5%; for `CCCc1[nH]nc2c1C(c1ccc(OC(=O)c3ccco3)cc1)C(C#N)=C(N)O2` (stereo not drawn) it is -28.2%; for `Cc1ccc(S(=O)(=O)N/N=C/c2cnn(C)c2C)cc1` it is 8.21%.
For the compound `N#Cc1c(C(F)(F)F)cc(-c2ccc(Cl)c(Cl)c2)nc1SCCN1CCOCC1`, the “hERG current change (%, negative = inhibition) at 10uM” value turned out to be 6.62%.
As to `COc1cccc(CNC(=O)CCC2CCCN(Cc3cc4ccccc4o3)C2)c1` (stereo not drawn), the “hERG current change (%, negative = inhibition) at 10uM” value is -75.6%.
The figure for `COC(=O)C(C)(C(=O)OC)c1ccc(C(F)(F)F)cc1[N+](=O)[O-]` is 22.7%.
The figure for `CCOc1ccc(CCNC(=O)CCC(=O)N2CCOc3ccc(C)cc32)cc1OCC` is -13.5%.
The figure for `COc1ccc(N(C(=O)c2ccco2)C(C(=O)NC2CCCC2)c2ccncc2)cc1OC` (stereo not drawn) is 5.24%; for `Cc1ccc(/C=C\c2nccc3c2[nH]c2ccccc23)cc1` it is -19.5%.
As for `COC(=O)Cc1c(O)ccn(Cc2ccc3c(c2)OCO3)c1=O`, the “hERG current change (%, negative = inhibition) at 10uM” value is recorded as 37.3%.
The figure for `COc1ccc(OC)c(S(=O)(=O)NCC2CCCO2)c1` (stereo not drawn) is 9.09%; for `COCCNC(=O)CSc1nc(-c2ccccc2)cs1` it is -7.95%; for `N#Cc1ccc(/C=N/NC(=O)CCc2ccc(S(=O)(=O)N3CCOCC3)cc2)cc1` it is -49.1%.
With `COc1cccc(C2NC(=O)NC(C)=C2C(=O)OCC2CCCO2)c1` (stereo not drawn), the “hERG current change (%, negative = inhibition) at 10uM” value is recorded as 1.88%.
`CC1CCC(=NNC(=O)c2ccccc2-n2cccc2)CC1` (stereo not drawn): the “hERG current change (%, negative = inhibition) at 10uM” value was -5.88%.
The figure for `Cc1cc(C)cc(N(CC(=O)N2CCN(c3ccccc3)CC2)S(=O)(=O)c2c(C)noc2C)c1` is -34.6%; for `Cc1ccccc1C(=O)NCCCNC(=O)c1ccccc1C` it is 6.58%.
For the compound `NC(=O)CSc1nnc(CNc2cccc(Cl)c2)n1CCc1ccccc1`, the “hERG current change (%, negative = inhibition) at 10uM” value is listed as -17.6%.
The figure for `Cc1ccc(C)c(N2CC(=O)N(c3cc(C)ccc3C)CC2=O)c1` is 11.4%; for `CC(C)CC(=O)Nc1cc(C(F)(F)F)ccc1N1CCOCC1` it is 4.35%; for `COc1cccc(SCc2noc(C(=O)NC(C)C)c2C(=O)O)c1` it is -2.25%.
The figure for `O=C(c1cc(COc2cccc(C(F)(F)F)c2)on1)N1CCc2ccccc2C1` is 10.4%; for `COc1cc(OC)nc(NC(=O)CS(=O)(=O)c2ccccc2)n1` it is -4.12%.
The figure for `CCOC(=O)N1CCN(S(=O)(=O)c2ccc(OC)c(C(=O)N3CCCCC3)c2)CC1` is 3.28%; for `CC(C)c1ccccc1NC(=O)CCc1nc2ccccc2s1` it is -19.5%; for `Cn1cc(Cl)c(/C(N)=N/OC(=O)c2ccccc2C(F)(F)F)n1` it is 14.2%.
With `CCN1C(=O)[C@H]2[C@@H](c3ccc(C)cc3)N3C(=O)N(c4ccc(C(F)(F)F)cc4)C(=O)[C@@]3(CC)[C@H]2C1=O`, the “hERG current change (%, negative = inhibition) at 10uM” value is on record as 14.1%.
The figure for `O=C(O)C1C2CCC(O2)C1C(=O)NCc1ccncc1` (stereo not drawn) is 8.42%.
The figure for `COc1ccc(CCC(C)NCc2cccc(Br)c2)cc1` (stereo not drawn) is -64.6%.
The figure for `CCC(C)N(C(=O)COC(=O)COc1c(C)cc(C)cc1C)C1CCS(=O)(=O)C1` (stereo not drawn) is -3.97%; for `COC(=O)c1ccc(COC(=O)CNC(=O)c2ccc(-c3ccccc3)cc2)cc1` it is 3.65%; for `CC(C)C(=O)Nc1ccc(C(=O)NNC(=S)NC(=O)c2cccs2)cc1` it is 12.8%.
With `CCOC(=O)COc1c(OC)cc(Cl)cc1C1Nc2ccccc2C(=O)N1c1cccc(C)c1` (stereo not drawn), the “hERG current change (%, negative = inhibition) at 10uM” value was -8.45%.
The figure for `CCc1ccc(CN2CCN(C(=O)Cc3ccccc3)CC2)cc1.O=C(O)C(=O)O` is -22.5%; for `C=CCNC(=O)c1ccc2nc(-c3ccccc3)c(-c3ccccc3)nc2c1` it is -15.4%.
The figure for `COc1ccc(-c2csc(NC(=O)CN3C(=O)C4CCCCC4C3=O)n2)c(OC)c1` (stereo not drawn) is 2.26%; for `CCOc1ccc2nc(SCC(=O)NCc3ccc(S(N)(=O)=O)cc3)[nH]c2c1` it is 31.8%; for `O=C(CN1C(=O)CCC1=O)NNc1ccc2ccccc2c1` it is 9.19%.
The figure for `CC(=O)OCc1c(C(F)(F)F)nn(C)c1Sc1ccccc1` is -21.1%.
